The antibiotic and cytotoxicity screens of Wong et al. (2023)
Some of the results follow.

What follows are compounds tested on HepG2 (assay: cytotoxicity call (relative viability < 0.9)). Settings: 10 µM.
`Cc1noc(C)c1NC(=O)Nc1ccc2c(c1)C(=O)N([C@H](C)CO)C[C@H](C)[C@H](CN(C)C(=O)NC1CCCCC1)OCCCC[C@@H](C)O2` was tested, and the cytotoxicity call was “inactive”. For `COc1ccc(S(=O)(=O)N2C[C@@H](O)COC[C@H]3O[C@H](CC(=O)NCc4ccc(Cl)c(Cl)c4)CC[C@@H]32)cc1`, the cytotoxicity call was “inactive”. For `C[C@H](CO)N1C[C@H](C)[C@@H](CN(C)C(=O)c2ccc3c(c2)OCO3)Oc2cc(-c3cncnc3)ccc2S1(=O)=O`, the cytotoxicity call was “inactive”. For `COc1ccc(S(=O)(=O)Nc2ccc3c(c2)CC(=O)N([C@H](C)CO)C[C@H](C)[C@H](CN(C)C)O3)cc1`, the cytotoxicity call was “inactive”. With `CC(C)CS(=O)(=O)C1CN(S(C)(=O)=O)C1` the cytotoxicity call was “inactive”. For `Cc1ccc(S(=O)(=O)N(C)C[C@H]2OCCCC[C@@H](C)Oc3ccc(NC(=O)Nc4c(C)noc4C)cc3C(=O)N([C@H](C)CO)C[C@@H]2C)cc1`, the cytotoxicity call was “inactive”. In the case of `C[C@@H]1CN([C@H](C)CO)C(=O)c2cc(NC(=O)Nc3cccc4ccccc34)ccc2O[C@H]1CN(C)C(=O)Nc1ccccc1`, the cytotoxicity call was “inactive”. For `Cc1cc(C(=O)Nc2cccc3c2O[C@H](CN(C)Cc2ccncc2)[C@H](C)CN([C@H](C)CO)C3=O)n(C)n1`, the cytotoxicity call was “inactive”. With `COc1ccc(S(=O)(=O)Nc2cccc3c2O[C@H](CN(C)S(=O)(=O)c2ccccc2)[C@H](C)CN([C@H](C)CO)C3=O)cc1` the cytotoxicity call was “inactive”. For `O=c1cc(CN2CCCC2)nc2n1CCCNC2`, the cytotoxicity call was “inactive”. With `C[C@@H]1CN([C@@H](C)CO)C(=O)c2cc(NS(=O)(=O)c3ccccc3)ccc2O[C@@H]1CN(C)S(=O)(=O)c1ccccc1` the cytotoxicity call was “inactive”. For `C[C@@H]1CN([C@H](C)CO)C(=O)Cc2cc(NS(=O)(=O)c3ccccc3)ccc2O[C@H]1CN(C)S(=O)(=O)c1cn(C)cn1`, the cytotoxicity call was “active”. With `COc1ccc(S(=O)(=O)N(C)C[C@@H]2Oc3c(NS(=O)(=O)c4ccccc4)cccc3C(=O)N([C@@H](C)CO)C[C@@H]2C)cc1` the cytotoxicity call was “inactive”. `C[C@H]1CN([C@@H](C)CO)C(=O)Cc2cc(NC(=O)Nc3ccc(C(F)(F)F)cc3)ccc2O[C@H]1CN(C)C(=O)Nc1ccc(F)cc1` was tested, and the cytotoxicity call was “active”. For `C[C@@H]1CN([C@@H](C)CO)C(=O)c2cc(NS(=O)(=O)c3ccc(F)cc3)ccc2O[C@@H](C)CCCCO[C@@H]1CN(C)C(=O)Nc1ccc(C(F)(F)F)cc1`, the cytotoxicity call was “active”. For `COc1ccc(NC(=O)Nc2ccc3c(c2)C(=O)N([C@@H](C)CO)C[C@H](C)[C@H](CN(C)C(=O)CCC(F)(F)F)OCCCC[C@@H](C)O3)cc1`, the cytotoxicity call was “inactive”. With `COCC#Cc1cnc2c(c1)C(=O)N([C@H](C)CO)C[C@@H](C)[C@@H](CN(C)S(=O)(=O)c1cn(C)cn1)O2` the cytotoxicity call was “inactive”. In the case of `C[C@H]1CN([C@@H](C)CO)C(=O)c2cc(NC(=O)Nc3cccc4ccccc34)ccc2O[C@@H]1CN(C)Cc1ccc(-c2ccccc2)cc1`, the cytotoxicity call was “active”. In the case of `Cc1ccc(S(=O)(=O)Nc2ccc3c(c2)CC(=O)N([C@@H](C)CO)C[C@H](C)[C@H](CN(C)C(=O)NC(C)C)O3)cc1`, the cytotoxicity call was “inactive”. In the case of `O=C(c1ccccc1Cl)n1c2ccccc2c2ccccc21`, the cytotoxicity call was “active”. With `COc1ccc(NC(=O)Nc2cccc3c2O[C@@H](CN(C)S(=O)(=O)c2cn(C)cn2)[C@@H](C)CN([C@@H](C)CO)C3=O)cc1` the cytotoxicity call was “inactive”. In the case of `Nc1nc(=O)c2nc(Br)n([C@H]3O[C@H]4COP(=O)(O)O[C@@H]4[C@@H]3O)c2[nH]1`, the cytotoxicity call was “inactive”. For `CC(C)NC(=O)Nc1ccc2c(c1)CC(=O)N([C@H](C)CO)C[C@H](C)[C@H](CN(C)S(=O)(=O)c1ccc(Cl)cc1)O2`, the cytotoxicity call was “inactive”. With `C[C@@H]1CN([C@@H](C)CO)C(=O)c2cc(NS(=O)(=O)c3ccc(F)cc3)ccc2O[C@H]1CN(C)S(=O)(=O)c1ccccc1` the cytotoxicity call was “inactive”. For `C[C@H]1CCCCO[C@H](CN(C)Cc2ccccc2)[C@@H](C)CN([C@@H](C)CO)C(=O)c2cc(NS(=O)(=O)c3ccc(F)cc3)ccc2O1`, the cytotoxicity call was “inactive”. For `O=c1cc(CN2CC[C@H](N3CCOCC3)[C@H](CCCO)C2)nc2c(O)cccn12`, the cytotoxicity call was “inactive”. For `COC(=O)c1sc2ncn(N)c(=O)c2c1C`, the cytotoxicity call was “inactive”. With `C[C@H]1CN([C@@H](C)CO)C(=O)c2cc(NC(=O)Nc3cccc4ccccc34)ccc2O[C@H]1CN(C)C(=O)Nc1ccc(C(F)(F)F)cc1` the cytotoxicity call was “inactive”. For `CN(C)CCC=C1c2ccccc2COc2ccccc21.Cl`, the cytotoxicity call was “active”. For `C[C@@H]1CN([C@@H](C)CO)C(=O)c2cc(C#CCN(C)C)cnc2O[C@@H]1CN(C)C(=O)Nc1ccccc1F`, the cytotoxicity call was “inactive”.
